# From PubChem BioAssay AID1508642 (National Center for Advancing Translational Sciences (NCATS), 2021)
# About 200 (0.47%) of roughly 43,000 compounds were called active. About 12% were inconclusive and are not listed. Calls come from the whole dose curve; as a rule, active = well fitted cell-killing curve with a large enough effect; inconclusive = small, poorly fitted or top-dose-only effect, or effect the other way; inactive = flat fitted curve, though single readings scatter. This is one part of the list.
# Experiment: Cell viability qHTS assay in S16 Pmp22-F2sN cells; note: nearly all actives have a fitted effect of over 65% in size
# Conditions: S16 Pmp22-F2sN Schwann cells (luciferase reporters placed in the Pmp22 gene) viability, CellTiter-Glo, 24 h; series mostly up to 57.5 µM; activity change, negative = cytotoxicity: at the top concentration
# How it was run: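 Rat S16 Schwann reporter line, 24 h treatment with library compounds delivered at 23 nL per well. Cell viability by CellTiter-Glo luminescence.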
# % is set by controls: 0 for no effect and ±100 for the full control effect.
row,SMILES,"activity change, negative = cytotoxicity"
1,O=C(Nc1ccccc1[N+](=O)[O-])c1csnn1,inactive: -10.4%
2,CCC(=O)C1=C(c2ccccc2)N(C(=O)CC)n2c(nnc2C2CCCCC2)S1,inactive: 5.98%
3,CCOc1ccccc1NC(=O)CCS(=O)(=O)c1ccc(OC)cc1,inactive: 3.55%
4,CCc1ccc(NC(=O)c2cc(CN3CCOCC3)on2)cc1,inactive: -1.57%
5,CCOc1ccc(-n2c(SCC(=O)N3CCCc4ccccc43)nc3c([nH]c4ccccc43)c2=O)cc1,inactive: 22.4%
6,Cc1cccc(-n2ccnc2SCC(=O)Nc2cc(C(F)(F)F)ccc2Cl)c1,inactive: -0.722%
7,COc1ccc(CCNC(=O)C(=O)Nc2ccc(C)c(C)c2)cc1OC,inactive: 1.75%
8,CCCCC(=O)Nc1cccc(-c2nc3ccccc3s2)c1,inactive: 11.8%
9,CC(C)Oc1ccc(CNC(=O)c2cnc3sc(N4CCCCCC4)nn3c2=O)cc1,inactive: 4.6%
10,CC(C)CCn1c(=O)c2sccc2n2c(CCCC(=O)Nc3ccc(F)c(Cl)c3)nnc12,inactive: -6.32%
11,O=C(NCc1ccc(F)cc1Cl)c1ccc(CSCc2ccccc2Cl)o1,inactive: 17.3%
12,Cc1ccc(NC(=O)c2cc(-c3cccs3)nc3ccccc23)c(C)c1,inactive: -0.193%
13,Cc1ccc(N2CCN(C(=O)Nc3cn(CC(C)C)c(=O)c4ccccc34)CC2)c(C)c1,inactive: -8.71%
14,CCCN(CCC)CCNC(=O)Cn1cnc2sc(C)c(S(=O)(=O)N3CCN(c4ccccc4OC)CC3)c2c1=O,inactive: 1.88%
15,CCn1c(C(=O)NCc2ccccc2)cc2sc(Cl)cc21,inactive: -25.1%
16,COc1cccc(CNC(=O)c2ccc(CN3CC(=O)N4CCCCC4C3=O)cc2)c1 (stereo not drawn),inactive: 5.29%
17,COc1ccccc1/C=C(\C#N)C(=O)NCC1CCCO1 (stereo not drawn),inactive: -18.2%
18,CCOc1ccc(/C=C/c2nc(C#N)c(N3CCCCCC3)o2)cc1,inactive: 4.06%
19,Cc1ccc(CNC(=O)c2ccc(CSCc3c(F)cccc3Cl)o2)cc1,inactive: -5.32%
20,COc1ccccc1NC(=O)Cn1c(=O)n(Cc2nc(C)no2)c(=O)c2cc3c(cc21)OCO3,inactive: 6.46%
21,Cc1cc(C)n2nc(CNS(=O)(=O)c3ccc(F)cc3)nc2n1,inactive: -0.391%
22,CCCOc1ccc(Cn2c(=O)sc3ccccc32)cc1,inactive: 0.841%
23,O=C(CSCc1ccc(F)cc1)N1CCc2c([nH]c3ccccc23)C1c1ccccc1 (stereo not drawn),inactive: -18.9%
24,CCCCCNc1nc2c(-c3ccccc3)nnn2c2ccccc12,inactive: 14.7%
25,CCc1ccc(OC(=O)c2sc3ncn(Cc4cccc(F)c4)c(=O)c3c2C)cc1,inactive: 0.55%

row,SMILES,"activity change, negative = cytotoxicity"
1,Cc1cccc(N2CCN(C(=O)c3ccc4c(c3)N(Cc3cccc(Cl)c3)C(=O)c3ccccc3S4=O)CC2)c1C (stereo not drawn),inactive: -3.67%
2,Cc1ccc(-c2nc(SCC(=O)Nc3cc(C)on3)c3c(=O)n(C)c(=O)n(C)c3n2)cc1,inactive: -9.63%
3,COc1ccccc1NC(=O)c1c(NC(=O)c2cccs2)sc2c1CCC(C(C)(C)C)C2 (stereo not drawn),inactive: -2.08%
4,Oc1c(C(c2ccc(Cl)cc2Cl)N2CCCC2)sc2nc(-c3ccco3)nn12 (stereo not drawn),inactive: 7.23%
5,CCOc1ccc(CCNC(=O)CCSCc2cccc(Cl)c2)cc1OCC,inactive: 1.58%
6,O=C(COc1ccc(F)cc1)OCc1cc(=O)n2nc(C3CC3)sc2n1,inactive: -7.03%
7,Cc1ccc(CCNC(=O)C2CCCN(S(=O)(=O)c3ccc4c(c3)oc(=O)n4C)C2)cc1 (stereo not drawn),inactive: 4.9%
8,CCc1ccc(-n2nc(C)c3c(C)cc(=O)n(CC(=O)N(CC)Cc4ccccc4)c32)cc1,inactive: -0.859%
9,CN(C)c1ccc(NC(=O)C2(c3cccs3)CCOCC2)cc1,inactive: -7.02%
10,O=C(Nc1cc(Cl)ccc1O)c1cc2nc(-c3ccc4c(c3)OCO4)cc(C(F)(F)F)n2n1,inactive: -0.17%
11,CCc1ccccc1NC(=O)COC(=O)c1cn(CC)c2nc(C)ccc2c1=O,inactive: 18.2%
12,CCCCOC(=O)c1ccc(Nc2nc3ccc(C)cc3n3cnnc23)cc1,inactive: 16.8%
13,COc1ccc(N2CC(C(=O)Nc3ccccc3-c3nc(-c4ccc(C)cc4)no3)CC2=O)cc1 (stereo not drawn),inactive: 2.54%
14,CCCSc1nc2c(c(=O)[nH]1)C(c1ccc(O)c(OCC)c1)CC(=O)N2 (stereo not drawn),inactive: -11.9%
15,COc1ccc(C(=O)NCCc2nc3ccccc3[nH]2)cc1,inactive: 0.867%
16,CC(C)(C)c1ccc(OCc2cc(=O)n3c4c(sc3n2)CCCC4)cc1,inactive: 12.3%
17,Cc1ccccc1CSCc1ccc(C(=O)NCCc2ccccc2)o1,inactive: 11.3%
18,COc1cccc(NC(=O)c2oc3ccc(S(=O)(=O)N4CCC5(CC4)OCCO5)cc3c2C)c1,inactive: -27.6%
19,CCOc1ccc(C(CC(=O)Nc2ccc(C(=O)OC)cc2)N2Cc3ccccc3C2=O)cc1OC (stereo not drawn),inactive: 9.21%
20,CN(C)c1ccc(CNS(=O)(=O)c2csc(C(N)=O)c2)cc1,inactive: -25%
21,O=C(NCC(c1ccco1)S(=O)(=O)c1cccs1)c1ccc(C(F)(F)F)cc1 (stereo not drawn),inactive: 0.523%
22,COc1cccc(NC(=O)Nc2cc(-c3cn4cccnc4n3)ccc2OC)c1,inactive: 2.54%
23,CCn1cc2nc(SCc3ccccc3)n(Cc3ccc(C)cc3)c(=O)c2n1,inactive: -25.1%
24,Clc1ccc(-c2noc3ncnc(N4CCCCC4)c23)cc1,inactive: -20.7%
25,COc1ccc(C)cc1NC(=O)c1cc(S(=O)(=O)NCCC2=CCCCC2)ccc1F,inactive: 5.45%

row,SMILES,"activity change, negative = cytotoxicity"
1,Cc1ccccc1NC(=O)CSc1nc2ccc(NC(=O)c3ccco3)cc2s1,inactive: -4.2%
2,O=C(CSc1nc(-c2ccccc2)no1)N1CCN(c2ccc(F)cc2)CC1,inactive: 0.668%
3,COc1ccc(C2=NS(=O)(=O)N(C)C(C(=O)NC(C)c3ccccc3)=C2)cc1OC (stereo not drawn),inactive: -23.2%
4,CC1=C(C(=O)OC2CCCC2)C(c2ccc(Cl)cc2)CC(=O)N1 (stereo not drawn),inactive: 27.8%
5,Cc1cc(C)cc(NC(=O)CN(c2cccc(C)c2C)S(=O)(=O)c2ccccc2)c1,inactive: 0.48%
6,COc1ccc2c(CNCCc3ccccc3OC)c(C(=O)O)n(Cc3ccc(F)cc3Cl)c2c1,inactive: -0.824%
7,CSc1cccc(NC(=O)N2CCN(S(=O)(=O)c3ccc4c(ccn4C)c3)CC2)c1,inactive: 2.86%
8,Cc1cccc(NC(=O)C2CCN(S(=O)(=O)c3c(C)noc3/C=C/c3ccco3)CC2)c1C,inactive: -9.93%
9,COc1cccc(N2C(=O)CSC23C(=O)N(Cc2ccccc2F)c2ccccc23)c1 (stereo not drawn),inactive: 12.2%
10,CCC(=O)N1CCc2cc(Br)cc(S(=O)(=O)N3CCN(c4cccc(Cl)c4)CC3)c21,inactive: 5.47%
11,O=C(OCC1CCCO1)c1ccc2c(c1)N(Cc1cccc(F)c1)C(=O)c1ccccc1S2(=O)=O (stereo not drawn),inactive: 10.4%
12,Cc1nc2c(-c3ccc(F)cc3)c(C)nn2c(C)c1CCC(=O)NCc1cccc(Cl)c1,inactive: 0.276%
13,CCOc1cccc(C2c3[nH]c4ccccc4c3CCN2C(=O)Cc2cccc(OCC)c2OCC)c1 (stereo not drawn),inactive: 0.46%
14,CC1CCc2nc(NC(=O)Cc3ccc(Cl)cc3)sc2C1 (stereo not drawn),inactive: 10.4%
15,Cc1cc2c(cc1S(=O)(=O)CCC(=O)N(C)Cc1ccccc1)OCC(=O)N2,inactive: 5.78%
16,O=C(c1cnc(N2CCCCC2)c2ccccc12)N1CCN(c2ccc(F)cc2)CC1,inactive: -25%
17,Fc1ccc(Nc2nc(-c3ccc(F)cc3)c3c(n2)-c2ccccc2OC3)cc1,inactive: 0.829%
18,COc1cccc(C(=O)Nc2ccc3nc(SCC(=O)N4CCc5ccccc54)sc3c2)c1,inactive: 0.563%
19,Cc1sc2c(c1C)c(=O)n(-c1ccc(Cl)cc1)c(=O)n2CC(=O)c1ccccc1,inactive: 9.43%
20,CCOC(=O)C(C)Nc1ncnc2onc(C)c12 (stereo not drawn),inactive: 4.2%
21,CSc1nc(C)cc(Nc2cccc(C(=O)O)c2)n1,inactive: 0.645%
22,Cc1ccc(-c2nc3scc(CCNS(=O)(=O)c4c(C)noc4C)n3n2)cc1,inactive: -3.4%
23,COc1cccc(CNC(=O)c2ccc3c(c2)sc2nc(-c4ccccc4)cn23)c1OC,inactive: 3.11%
24,O=c1[nH]c2ccc(S(=O)(=O)Nc3cc(Cl)ccc3O)cc2o1,inactive: -13.3%
25,NS(=O)(=O)c1ccc(CCNC(=O)CCn2c(=O)c3cccn3c3cccnc32)cc1,inactive: 22.4%

row,SMILES,"activity change, negative = cytotoxicity"
1,Cc1cc(Br)ccc1NC(=O)C(NS(=O)(=O)c1cccs1)c1ccccc1 (stereo not drawn),inactive: 1.44%
2,COc1ccc(Cl)cc1NC(=O)c1cc2nc(-c3ccc(C)cc3)cc(C(F)(F)F)n2n1,inactive: 7.77%
3,Cc1cc(F)ccc1NC(=O)CN1C(=O)CCc2cc(S(=O)(=O)N3CCOCC3)ccc21,inactive: -0.636%
4,CCOC(=O)C1=C(CN2CCCCC2)NC(=O)NC1c1ccc(OC)cc1 (stereo not drawn),inactive: -5.6%
5,Cc1cccc(NC(=O)c2ccc(F)c(S(=O)(=O)N3CCN(c4ccc(F)cc4)CC3)c2)c1,inactive: -22.2%
6,CCOc1ccccc1NC(=O)c1cn(C2CCCCC2)c(=O)c2c1c1ccccc1n2C,inactive: 0.158%
7,COc1ccc(CCNC(=O)CCn2c(=O)c3cccn3c3ccc(F)cc32)cc1OC,inactive: -0.605%
8,Cc1ccc(-c2cn3c(n2)sc2cc(C(=O)NC4CCCCC4)ccc23)cc1,inactive: -4.64%
9,CC1(C)O[C@H]2[C@@H](O1)[C@@H](C(=O)Nc1cc(F)ccc1F)O[C@@H]1OC(C)(C)O[C@@H]12,inactive: 3.91%
10,O=C(O)CCSc1nnc(-c2ccc(Cl)cc2Cl)o1,inactive: -3.3%
11,CCOC(=O)c1ccc(CN(Cc2ccc(Cl)cc2Cl)S(=O)(=O)c2cccc(Cl)c2)cc1,inactive: 7.83%
12,Cc1cc(-c2ccc(C)c(S(=O)(=O)N(C(C)C)C3CCCCC3)c2)on1,inactive: -5.41%
13,CC(=O)c1ccc(NC(=O)c2nn(C)c3c2CS(=O)(=O)c2ccccc2-3)cc1,inactive: 2.5%
14,COc1ccc(-c2nc3n(n2)C(c2cccc(C)c2)C(C(N)=O)=C(C)N3)cc1OC (stereo not drawn),inactive: -1.91%
15,Cc1ccc2nc(N(Cc3cccnc3)C(=O)CCc3ccccc3)sc2c1,inactive: 2.33%
16,Cc1cccc(-c2cc(C(=O)O)c3c(-c4ccc(F)cc4)[nH]nc3n2)c1,inactive: 0.286%
17,O=S(=O)(c1ccc(Br)cc1)N1CCn2cccc2C1c1ccc(Br)cc1 (stereo not drawn),inactive: -9.06%
18,COc1ccc(-c2nc(CS(=O)CC(=O)NCc3ccccc3Cl)c(C)o2)cc1OC (stereo not drawn),inactive: 9.8%
19,Cn1c(C(=O)Nc2cccc(Cl)c2)cc2c(=O)n(C)c3ccccc3c21,inactive: 5.48%
20,Cc1ccc(CNc2nc3nc(C)c(Cl)c(C)n3n2)cc1,inactive: -2.79%
21,Cc1nn(C)c2c1c(C(F)(F)F)cc(=O)n2C(C)C(=O)NCc1ccccc1 (stereo not drawn),inactive: 17.1%
22,CCOCCc1nn2c(=O)cc(COC(=O)c3ccc4c(c3)OCO4)nc2s1,inactive: -2.88%
23,CC(C)c1nn2c(=O)cc(COC(=O)COc3ccccc3F)nc2s1,inactive: 18%
